Reference: the supplement of paper PMC11417369
The list shows a part of the results.

tested on: PfAP2-HC AP2 domain (GST-tagged); experiment: gcPBM binding intensity (ln(normalized median fluorescence intensity)); higher = stronger DNA binding
Summary of the method: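 Using an Agilent 4 × 180k array, primer-extended double-stranded 36-bp intergenic genomic probes and negative controls were exposed for 1 h to GST-fused P. falciparum DNA-binding domains expressed in E. coli. Binding was carried out in 1× PBS with 1% milk, 0.2 mg/ml BSA, 0.5% salmon testes DNA and 0.03% Triton X-100, and protein was detected with Alexa488 anti-GST antibody and a 488 nm scan. Binding intensity is the highest Masliner-normalised natural-log median intensity across replicate spots of either probe orientation.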

Sequence	gcPBM binding intensity (ln)
ATTTCTAATATTTTTGCACACTAAACAATAAATTTC [CACACA_site3943]	9.86
TTTTTAATTTAAAAAAATAATATTTTATATTCCGAA [CACACA_negctrl_site108]	8.86
TATTTTTTATTTTTTTGTACATATTTGATAATTAAT [XGTACX_site316]	9.62
GTAAGCATCAAAAAAGGTACAGAAATTATAAATAAA [XGTACX_site6708]	9.57
AAATATTTATATATATGTACACATATAATATTTTTA [XGTACX_site2338]	9.52
GAATATAAAAGGAACGGTACAGAAAAAAAAAAAAAA [XGTACX_site3917]	9.48
TTTATTTTTTATATATCACTTAAAAAAAAAAAAAAA [CACACA_negctrl_site249]	8.93
ATTTATATTTTATATACACACATGAACTTATATGGA [CACACA_site3167]	9.74
CTTTTTTTTTTATGCACACACAATTATACATTCCTT [CACACA_site3877]	10.6
AATATAGTCTCACATACACACATATATATTTATATA [CACACA_site2503]	9.86
ATGTAATATATTATATGTACATATTTTTATGTAGAT [XGTACX_site5945]	9.76
AAAACAAATAAGTAAACACACATATATAATATATAT [CACACA_site2586]	10
AAAAAAAAAAAAACTAGTACATATATATAGTATGAA [XGTACX_site6279]	9.71
ATTATATTTGAATGGTGTACTATAATAATGTAGTTT [XGTACX_site8069]	9.67
ACATATATATATATATAAATATATATGTATGTATTT [XGTACX_negctrl_site237]	9.55
GAATAAATTAAATTCACACATAAAATACAAAATACA [CACACA_site5495]	9.89
CATACACGCGGACACACACACACACGCATATATAAC [CACACA_site6427]	11.2
CTTATATTAATTATTACACACATATATATAAATGCA [CACACA_site770]	9.68
AAAGAAAATAGGTGTACACATAATAAATACAGCTAT [CACACA_site5917]	10.4
ACAAGTGTATATGTTATATATATATATATATATATA [CACACA_negctrl_site1686]	9.65
TACGTATTCATGTATAGTACTCTTTTTTTTAATAAA [XGTACX_site3299]	9.33
TTATTACGAACTCTGCAACATATATAAATAAATAAA [CACACA_negctrl_site44]	9.34
AAAATAATATTTAATACACACATAATTACAATATAA [CACACA_site6510]	9.87
AAAGATAAAATATATACACACACATAAATACGTACA [CACACA_site8275]	10.8
